Measurements as given in the supplement of paper PMC11125491.
± gives the standard deviation of the averaged measurements. Growth of baker's yeast expressing single-residue variants of Pneumocystis jirovecii dihydrofolate reductase in 8.8 or 44 µM methotrexate (about 75% and 90% inhibition of the wild type). Selection coefficient per generation; 0 = like wild type, above 0 = less sensitive, below 0 = more sensitive or loss of function. No active / inactive call per row; the paper calls resistant above 0.220 (8.8 µM) or 0.243 (44 µM) together with a significance test. At 44 µM about 15% of codons end with one read or none, so the lowest values are floors (replicate rank correlation 0.74; 0.94 at 8.8 µM).

B1: UniProt A0EPZ9; numbered along this chain (parent)
chain: MDWQKSLTLIVALTLSRGIGLKNDLPWKLKSDMMFFSRVTSGLLVTRSTGQMNVVLMGRKTWESLPAHSRPLKNRINVVISRQEVLDLGGGAYHARSLDDALALLSQIYDSTSKIQLNRVFVIGGGELCKAAMEHSRLNRIIATVIHNEVDCDVFFPIDFRSSQSCLPWRKQDHSVLEAWVGSKVPQGKINENGFIYEFEMWIRDI

Variants of: B1
Assay: selection coefficient against synonymous wild-type codons (log2 per generation); higher = faster growth than wild type
Conditions: with Saccharomyces cerevisiae carrying the variant on a plasmid
Experimental: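 Pooled growth of yeast carrying single-residue variants of P. jirovecii dihydrofolate reductase (own DFR1 gene intact), two passages at 30 °C, three cultures, sequenced before and after. Codons with under 15 starting reads are left out; codons of one change are averaged.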

MDWQKSLTLIVALTLSRGIGLKNDLPWKLKSDMMFFSRVTSGLLVTRSTGQMNGVLMGRKTWESLPAHSRPLKNRINVVISRQEVLDLGGGAYHARSLDDALALLSQIYDSTSKIQLNRVFVIGGGELCKAAMEHSRLNRIIATVIHNEVDCDVFFPIDFRSSQSCLPWRKQDHSVLEAWVGSKVPQGKINENGFIYEFEMWIRDI [V54G] was tested, and the “selection coefficient against synonymous wild-type codons (log2)” value (from here on “selection coefficient … (log2)”) (methotrexate 8.8 µM) was -0.402 ± 0.13 and the “selection coefficient … (log2)” value (methotrexate 44 µM) was -0.279 ± 0.12.

MDWQKSLTLIVALTLSRGIGLKNDLPWKLKSDMMFFSRVTSGLLVTRSTGQMNKVLMGRKTWESLPAHSRPLKNRINVVISRQEVLDLGGGAYHARSLDDALALLSQIYDSTSKIQLNRVFVIGGGELCKAAMEHSRLNRIIATVIHNEVDCDVFFPIDFRSSQSCLPWRKQDHSVLEAWVGSKVPQGKINENGFIYEFEMWIRDI [V54K] was tested, and the “selection coefficient … (log2)” value (methotrexate 8.8 µM) was -0.46 ± 0.03 and the “selection coefficient … (log2)” value (methotrexate 44 µM) was -0.171 ± 0.08.

For MDWQKSLTLIVALTLSRGIGLKNDLPWKLKSDMMFFSRVTSGLLVTRSTGQMNFVLMGRKTWESLPAHSRPLKNRINVVISRQEVLDLGGGAYHARSLDDALALLSQIYDSTSKIQLNRVFVIGGGELCKAAMEHSRLNRIIATVIHNEVDCDVFFPIDFRSSQSCLPWRKQDHSVLEAWVGSKVPQGKINENGFIYEFEMWIRDI [V54F], the “selection coefficient … (log2)” value (methotrexate 8.8 µM) was -0.449 ± 0.12 and the “selection coefficient … (log2)” value (methotrexate 44 µM) was -0.318 ± 0.15.

MDWQKSLTLIVALTLSRGIGLKNDLPWKLKSDMMFFSRVTSGLLVTRSTGQMNDVLMGRKTWESLPAHSRPLKNRINVVISRQEVLDLGGGAYHARSLDDALALLSQIYDSTSKIQLNRVFVIGGGELCKAAMEHSRLNRIIATVIHNEVDCDVFFPIDFRSSQSCLPWRKQDHSVLEAWVGSKVPQGKINENGFIYEFEMWIRDI [V54D] was tested, and the “selection coefficient … (log2)” value (methotrexate 8.8 µM) was -0.582 ± 0.1 and the “selection coefficient … (log2)” value (methotrexate 44 µM) was -0.335 ± 0.11.

With MDWQKSLTLIVALTLSRGIGLKNDLPWKLKSDMMFFSRVTSGLLVTRSTGQMNIVLMGRKTWESLPAHSRPLKNRINVVISRQEVLDLGGGAYHARSLDDALALLSQIYDSTSKIQLNRVFVIGGGELCKAAMEHSRLNRIIATVIHNEVDCDVFFPIDFRSSQSCLPWRKQDHSVLEAWVGSKVPQGKINENGFIYEFEMWIRDI [V54I] the “selection coefficient … (log2)” value (methotrexate 8.8 µM) was -0.0909 ± 0.17 and the “selection coefficient … (log2)” value (methotrexate 44 µM) was -0.0743 ± 0.26.

MDWQKSLTLIVALTLSRGIGLKNDLPWKLKSDMMFFSRVTSGLLVTRSTGQMNCVLMGRKTWESLPAHSRPLKNRINVVISRQEVLDLGGGAYHARSLDDALALLSQIYDSTSKIQLNRVFVIGGGELCKAAMEHSRLNRIIATVIHNEVDCDVFFPIDFRSSQSCLPWRKQDHSVLEAWVGSKVPQGKINENGFIYEFEMWIRDI [V54C] was tested, and the “selection coefficient … (log2)” value (methotrexate 8.8 µM) was -0.136 ± 0.087 and the “selection coefficient … (log2)” value (methotrexate 44 µM) was -0.174 ± 0.075.

In the case of MDWQKSLTLIVALTLSRGIGLKNDLPWKLKSDMMFFSRVTSGLLVTRSTGQMNAVLMGRKTWESLPAHSRPLKNRINVVISRQEVLDLGGGAYHARSLDDALALLSQIYDSTSKIQLNRVFVIGGGELCKAAMEHSRLNRIIATVIHNEVDCDVFFPIDFRSSQSCLPWRKQDHSVLEAWVGSKVPQGKINENGFIYEFEMWIRDI [V54A], the “selection coefficient … (log2)” value (methotrexate 8.8 µM) is reported as 0.0688 ± 0.043 and the “selection coefficient … (log2)” value (methotrexate 44 µM) is reported as 0.112 ± 0.1.

MDWQKSLTLIVALTLSRGIGLKNDLPWKLKSDMMFFSRVTSGLLVTRSTGQMNEVLMGRKTWESLPAHSRPLKNRINVVISRQEVLDLGGGAYHARSLDDALALLSQIYDSTSKIQLNRVFVIGGGELCKAAMEHSRLNRIIATVIHNEVDCDVFFPIDFRSSQSCLPWRKQDHSVLEAWVGSKVPQGKINENGFIYEFEMWIRDI [V54E] was tested, and the “selection coefficient … (log2)” value (methotrexate 8.8 µM) was -0.622 ± 0.035 and the “selection coefficient … (log2)” value (methotrexate 44 µM) was -0.375 ± 0.035.

With MDWQKSLTLIVALTLSRGIGLKNDLPWKLKSDMMFFSRVTSGLLVTRSTGQMNHVLMGRKTWESLPAHSRPLKNRINVVISRQEVLDLGGGAYHARSLDDALALLSQIYDSTSKIQLNRVFVIGGGELCKAAMEHSRLNRIIATVIHNEVDCDVFFPIDFRSSQSCLPWRKQDHSVLEAWVGSKVPQGKINENGFIYEFEMWIRDI [V54H] the “selection coefficient … (log2)” value (methotrexate 8.8 µM) was -0.492 ± 0.071 and the “selection coefficient … (log2)” value (methotrexate 44 µM) was -0.245 ± 0.059.

MDWQKSLTLIVALTLSRGIGLKNDLPWKLKSDMMFFSRVTSGLLVTRSTGQMTVVLMGRKTWESLPAHSRPLKNRINVVISRQEVLDLGGGAYHARSLDDALALLSQIYDSTSKIQLNRVFVIGGGELCKAAMEHSRLNRIIATVIHNEVDCDVFFPIDFRSSQSCLPWRKQDHSVLEAWVGSKVPQGKINENGFIYEFEMWIRDI [N53T] was tested, and the “selection coefficient … (log2)” value (methotrexate 8.8 µM) was 0.00322 ± 0.03 and the “selection coefficient … (log2)” value (methotrexate 44 µM) was 0.0104 ± 0.13.

MDWQKSLTLIVALTLSRGIGLKNDLPWKLKSDMMFFSRVTSGLLVTRSTGQMVVVLMGRKTWESLPAHSRPLKNRINVVISRQEVLDLGGGAYHARSLDDALALLSQIYDSTSKIQLNRVFVIGGGELCKAAMEHSRLNRIIATVIHNEVDCDVFFPIDFRSSQSCLPWRKQDHSVLEAWVGSKVPQGKINENGFIYEFEMWIRDI [N53V] was tested, and the “selection coefficient … (log2)” value (methotrexate 8.8 µM) was -0.0366 ± 0.022 and the “selection coefficient … (log2)” value (methotrexate 44 µM) was 0.0923 ± 0.056.

With MDWQKSLTLIVALTLSRGIGLKNDLPWKLKSDMMFFSRVTSGLLVTRSTGQMYVVLMGRKTWESLPAHSRPLKNRINVVISRQEVLDLGGGAYHARSLDDALALLSQIYDSTSKIQLNRVFVIGGGELCKAAMEHSRLNRIIATVIHNEVDCDVFFPIDFRSSQSCLPWRKQDHSVLEAWVGSKVPQGKINENGFIYEFEMWIRDI [N53Y] the “selection coefficient … (log2)” value (methotrexate 8.8 µM) was -0.326 ± 0.092 and the “selection coefficient … (log2)” value (methotrexate 44 µM) was -0.225 ± 0.094.

With MDWQKSLTLIVALTLSRGIGLKNDLPWKLKSDMMFFSRVTSGLLVTRSTGQMSVVLMGRKTWESLPAHSRPLKNRINVVISRQEVLDLGGGAYHARSLDDALALLSQIYDSTSKIQLNRVFVIGGGELCKAAMEHSRLNRIIATVIHNEVDCDVFFPIDFRSSQSCLPWRKQDHSVLEAWVGSKVPQGKINENGFIYEFEMWIRDI [N53S] the “selection coefficient … (log2)” value (methotrexate 8.8 µM) was -0.00453 ± 0.028 and the “selection coefficient … (log2)” value (methotrexate 44 µM) was -0.0241 ± 0.059.

In the case of MDWQKSLTLIVALTLSRGIGLKNDLPWKLKSDMMFFSRVTSGLLVTRSTGQMWVVLMGRKTWESLPAHSRPLKNRINVVISRQEVLDLGGGAYHARSLDDALALLSQIYDSTSKIQLNRVFVIGGGELCKAAMEHSRLNRIIATVIHNEVDCDVFFPIDFRSSQSCLPWRKQDHSVLEAWVGSKVPQGKINENGFIYEFEMWIRDI [N53W], the “selection coefficient … (log2)” value (methotrexate 8.8 µM) is reported as -0.414 ± 0.27 and the “selection coefficient … (log2)” value (methotrexate 44 µM) is reported as -0.243 ± 0.15.

For MDWQKSLTLIVALTLSRGIGLKNDLPWKLKSDMMFFSRVTSGLLVTRSTGQMRVVLMGRKTWESLPAHSRPLKNRINVVISRQEVLDLGGGAYHARSLDDALALLSQIYDSTSKIQLNRVFVIGGGELCKAAMEHSRLNRIIATVIHNEVDCDVFFPIDFRSSQSCLPWRKQDHSVLEAWVGSKVPQGKINENGFIYEFEMWIRDI [N53R], the “selection coefficient … (log2)” value (methotrexate 8.8 µM) was -0.371 ± 0.09 and the “selection coefficient … (log2)” value (methotrexate 44 µM) was -0.279 ± 0.18.
